Changes are numbered by the printed parent chain.
What was measured:
[1] = target: T1, human PDGF-Rβ (R&D Systems, cat. no. 385-PR-100/CF) (human, UniProt P09619 33-530, limits assumed); assay: SPR Biacore 2000, PDGF-Rβ on CM5 chip, 1:1 binding with mass transfer; sample (0) before stability test
T1 construct: Bought; also called platelet-derived growth factor receptor beta

[2] = target: T1, human PDGF-Rβ (R&D Systems, cat. no. …); assay: SPR Biacore 2000, PDGF-Rβ on CM5 chip, 1:1 binding with mass transfer; sample (2w) after 2 weeks at 37 C
[3] = target: T1, human PDGF-Rβ (R&D Systems, cat. no. …); assay: SPR Biacore 2000, PDGF-Rβ on CM5 chip, 1:1 binding with mass transfer; KD after 2 weeks at 37 C against KD before
[4] = target: T1, human PDGF-Rβ (R&D Systems, cat. no. …); assay: SPR Biacore 2000, PDGF-Rβ on CM5 chip, 1:1 binding with mass transfer; sample (0) before stability test; reference Z15805 (0)
[5] = target: T1, human PDGF-Rβ (R&D Systems, cat. no. …); assay: SPR Biacore 2000, PDGF-Rβ on CM5 chip, 1:1 binding with mass transfer; sample (2w) after 2 weeks at 37 C; reference Z15805 (2w)
[6] = target: T2, human CAIX (R&D Systems, cat. no. 2188-CA) (human, UniProt Q16790 59-414); assay: SPR Biacore 2000, CAIX on CM5 chip, 1:1 Langmuir; sample (0) before stability test
[7] = target: T2, human CAIX (R&D Systems, cat. no. …); assay: SPR Biacore 2000, CAIX on CM5 chip, 1:1 Langmuir; sample (2w) after 2 weeks at 37 C
[8] = target: T2, human CAIX (R&D Systems, cat. no. …); assay: SPR Biacore 2000, CAIX on CM5 chip, 1:1 Langmuir; KD after 2 weeks at 37 C against KD before
[9] = target: T2, human CAIX (R&D Systems, cat. no. …); assay: SPR Biacore 2000, CAIX on CM5 chip, 1:1 Langmuir; sample (0) before stability test; reference Z09782 (0)
[10] = target: T2, human CAIX (R&D Systems, cat. no. …); assay: SPR Biacore 2000, CAIX on CM5 chip, 1:1 Langmuir; sample (2w) after 2 weeks at 37 C; reference Z09782 (2w)
[11] = target: T3, human C5 (Quidel, cat. no. A403) (human, UniProt P01031 19-673; P01031 678-1676, limits assumed); assay: BLI (ForteBio), compound captured on HSA sensor, human C5 0.79-25 nM, 1:1 model
T3 construct: Bought protein; also called hC5; human complement component 5

T1 sequence (P09619 33-530 limits assumed): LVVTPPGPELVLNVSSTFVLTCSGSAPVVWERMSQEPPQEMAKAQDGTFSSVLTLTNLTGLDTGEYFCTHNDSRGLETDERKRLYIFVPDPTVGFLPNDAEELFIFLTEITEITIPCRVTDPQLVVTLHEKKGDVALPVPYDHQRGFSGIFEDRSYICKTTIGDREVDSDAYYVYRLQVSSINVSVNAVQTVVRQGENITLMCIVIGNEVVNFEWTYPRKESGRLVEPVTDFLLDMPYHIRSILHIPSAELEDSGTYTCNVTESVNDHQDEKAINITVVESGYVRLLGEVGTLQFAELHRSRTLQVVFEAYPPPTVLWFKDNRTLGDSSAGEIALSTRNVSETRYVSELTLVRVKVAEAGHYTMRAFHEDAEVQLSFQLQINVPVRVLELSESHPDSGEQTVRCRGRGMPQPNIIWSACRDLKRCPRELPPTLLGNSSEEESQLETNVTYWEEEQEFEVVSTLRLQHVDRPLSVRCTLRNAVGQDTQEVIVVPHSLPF

B1: Z17343 (designed binder)
chain: MGSSHHHHHHLQAEAKYAKELIEAAAEIDALPNLTRRQWNAFIKKLVDDPSQSSELLSEAKKLSESQAPK
notes: also called Z017343
Binder B1 has a Kd [1] of 0.37 nM, a koff [1] of 0.00177 s⁻¹ and a kon [1] of 4.8e+06 M⁻¹ s⁻¹. For the same binder, the Kd [2] was 0.23 nM, the koff [2] was 0.00171 s⁻¹ and the kon [2] was 6.45e+06 M⁻¹ s⁻¹. For the same binder, the “KD(2w)/KD(0)” value [3] was 0.72 ratio, the KDInv/KDOrig [4] was 1.9 ratio and the KDInv/KDOrig [5] was 0.93 ratio.

B2: Z15805 (designed binder)
chain: B1 chain with S64N, E65D
Binder B2 has a Kd [1] of 0.19 nM, a koff [1] of 0.00139 s⁻¹ and a kon [1] of 7.15e+06 M⁻¹ s⁻¹. The Kd [2] was 0.29 nM, the koff [2] was 0.00166 s⁻¹ and the kon [2] was 5.81e+06 M⁻¹ s⁻¹. For the same binder, the “KD(2w)/KD(0)” value [3] was 1.47 ratio, the KDInv/KDOrig [4] was 1 ratio and the KDInv/KDOrig [5] was 1 ratio.

B3: Z09782 (designed binder)
chain: MGSSHHHHHHLQAEAKYAKENLFAGWEISDLPNLTDYQRNAFIYKLWDDPSQSSELLSEAKKLNDSQAPK
In the case of B3, the Kd [6] is reported as 7 nM, the koff [6] is reported as 0.00146 s⁻¹ and the kon [6] is reported as 208000 M⁻¹ s⁻¹. It also gave a Kd [7] of 9.9 nM, a koff [7] of 0.00138 s⁻¹ and a kon [7] of 140000 M⁻¹ s⁻¹. For the same binder, the “KD(2w)/KD(0)” value [8] was 1.41 ratio, the KDInv/KDOrig [9] was 1 ratio and the KDInv/KDOrig [10] was 1 ratio.

B4: Z17359 (designed binder)
chain: B3 chain with N64S
Work on B4 yielded a Kd [6] of 13 nM, a koff [6] of 0.00215 s⁻¹ and a kon [6] of 168000 M⁻¹ s⁻¹. The Kd [7] was 13 nM, the koff [7] was 0.00233 s⁻¹ and the kon [7] was 178000 M⁻¹ s⁻¹. The “KD(2w)/KD(0)” value [8] was 1.02 ratio, the KDInv/KDOrig [9] was 1.82 ratio and the KDInv/KDOrig [10] was 1.32 ratio.

B5: Z17351 (designed binder)
chain: B3 chain with N64S, D65E
notes: also called Z017351
Binder B5 has a Kd [6] of 18 nM, a koff [6] of 0.00263 s⁻¹ and a kon [6] of 151000 M⁻¹ s⁻¹. For the same binder, the Kd [7] was 15 nM, the koff [7] was 0.00286 s⁻¹ and the kon [7] was 191000 M⁻¹ s⁻¹. For the same binder, the “KD(2w)/KD(0)” value [8] was 0.86 ratio, the KDInv/KDOrig [9] was 2.49 ratio and the KDInv/KDOrig [10] was 1.52 ratio.

B6: Z17355 (designed binder)
chain: B3 chain with D65E
B6 gave a Kd [6] of 7.9 nM, a koff [6] of 0.00123 s⁻¹ and a kon [6] of 157000 M⁻¹ s⁻¹. It also gave a Kd [7] of 11 nM, a koff [7] of 0.00123 s⁻¹ and a kon [7] of 116000 M⁻¹ s⁻¹. The “KD(2w)/KD(0)” value [8] was 1.35 ratio, the KDInv/KDOrig [9] was 1.12 ratio and the KDInv/KDOrig [10] was 1.07 ratio.

B7: PSI0242 (designed binder)
chain: AEAKYAKEVLEAWDEIDRLPNLTIEQWLAFINKLDDDPSQSSELLSEAKKLNDSQAPKVDGSLAEAKEAANAELDSYGVSDFYKRLIDKAKTVEGVEALKDAILAALP
With B7 the “Rel. KD” value [11] was 1 ratio to PSI0242.

B8: PSI0378 (designed binder)
chain: B7 chain with N52S, D53E, D60E
notes: positions 52-53 changed from ND to SE against PSI0242
In the case of B8, the “Rel. KD” value [11] is reported as 1.3 ratio to PSI0242.

B9: PSI0334 (designed binder)
chain: B7 chain with N52S, D53E
notes: as for B8
B9 was tested, and the “Rel. KD” value [11] was 1.1 ratio to PSI0242.

B10: PSI0381 (designed binder)
chain: B7 chain with N52E, D53S, D60E
notes: positions 52-53 changed from ND to ES against PSI0242
For B10, the “Rel. KD” value [11] was 23 ratio to PSI0242.

From patent USRE49495 (Affibody, dated 2023)
